# Where “and” joins values, the source holds several entries; their conditions need not be identical. Equal values may be shown once. The whole screen tested about 110,000 compounds, of which about 230 (0.21%) showed an effect of 50% or more. The list shows a part of the results.
# Biological target: DPAP1 (Plasmodium falciparum, UniProt Q8IIJ9)
# Experiment: primary screen, percent inhibition; read by cleavage of a fluorogenic dipeptide substrate; higher = more effect of the substance
# Design: species or system P. falciparum D10 trophozoite lysates; single well
# 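Further: 30 min substrate incubation versus DMSO and 10 µM JCP410 controls.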
# Sequence of DPAP1 (Q8IIJ9 whole entry, looked up): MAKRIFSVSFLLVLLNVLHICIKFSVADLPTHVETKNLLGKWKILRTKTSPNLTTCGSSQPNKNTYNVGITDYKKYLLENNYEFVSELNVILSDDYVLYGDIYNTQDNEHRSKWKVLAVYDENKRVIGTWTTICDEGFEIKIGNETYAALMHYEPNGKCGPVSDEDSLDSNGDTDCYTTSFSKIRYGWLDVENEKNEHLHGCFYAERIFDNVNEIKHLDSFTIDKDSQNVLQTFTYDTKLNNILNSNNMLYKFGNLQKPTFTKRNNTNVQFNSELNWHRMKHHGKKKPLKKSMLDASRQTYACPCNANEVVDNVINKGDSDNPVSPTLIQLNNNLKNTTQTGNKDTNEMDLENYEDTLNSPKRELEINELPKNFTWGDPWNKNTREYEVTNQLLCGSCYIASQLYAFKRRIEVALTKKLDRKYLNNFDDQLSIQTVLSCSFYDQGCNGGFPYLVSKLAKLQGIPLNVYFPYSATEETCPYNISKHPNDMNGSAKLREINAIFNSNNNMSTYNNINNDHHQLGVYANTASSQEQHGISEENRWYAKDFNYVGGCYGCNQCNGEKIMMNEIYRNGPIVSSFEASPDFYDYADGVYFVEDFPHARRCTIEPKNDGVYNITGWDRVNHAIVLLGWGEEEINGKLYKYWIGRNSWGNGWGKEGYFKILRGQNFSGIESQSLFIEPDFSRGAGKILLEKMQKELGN
row,SMILES,% Inhibition @ 10 uM
1,CCOc1cc(CN2CCCN(C)CC2)ccc1O,2.47%
2,COc1ccc(-n2c(C)cc(/C=C3/C(=N)N4OC(C)=CC4=NC3=O)c2C)cc1Cl,0.317%
3,CCN(CC)C(=O)C1CCCN(Cc2ccc(OC)c(C)c2C)C1 (centres unmarked),-0.197%
4,O=C(Cc1ccccc1)Nc1ccc(CN2CCOCC2)cc1,-0.737%
5,CN1CCCN(Cc2c(Cl)cccc2Cl)CC1,-0.0494%
6,Cc1ccc(-c2noc(CCC(=O)NC3CCN(Cc4ccccc4)CC3)n2)cc1,-4.03%
7,C=CCn1cc(C=C2C(=O)N(C)C(=O)N(C)C2=O)c2ccccc21,-3.21%
8,CCN(CC)C(=O)C1CCCN(Cc2ccc(N(C)C)cc2)C1 (centres unmarked),-4.5%
9,Cc1ccc(CNC(=O)c2cc(O)nc3ccc(Br)cc23)cc1,4.81%
10,C=C(CC)CC(NC(=O)OCc1ccccc1)C(=O)NCC#N (centres unmarked),-1.41%
11,COc1cc(/C=C2/N=C(c3ccc(-c4ccccc4)cc3)OC2=O)cc(OC)c1OC,0.607%
12,COCCC/N=C/C1=C(O)CC(c2ccccc2)CC1=O (centres unmarked),-2.8%
13,NS(=O)(=O)c1ccc(CCNC(=O)C2c3ccccc3Oc3ccccc32)cc1,-3.41%
14,COc1cc(C2c3c(-c4ccccc4O)n[nH]c3C(=O)N2CCO)ccc1O (centres unmarked),-1.35%
15,COc1ccccc1/C=C/c1nc(C#N)c(NCc2ccco2)o1,-2.57%
16,CCN(CC)S(=O)(=O)c1ccc(NC(=O)c2ccccc2Oc2ccccc2)cc1,-7.25%
17,Cc1cc(C)n2nc(CNS(=O)(=O)c3cccc(C#N)c3)nc2n1,1.22%
18,CC(=O)Nc1ccc(NC(=O)c2ccc(-c3ccc(Br)cc3)o2)cc1,-1.77%
19,CS(=O)(=O)N1N=C(c2ccc(Cl)cc2)CC1c1ccc(Cl)cc1 (centres unmarked),-6.37%
20,CCNCC(O)COCC(O)CNCC (centres unmarked),-1.74%
21,CCN(CC)CCN1CCn2c3c(c4cc(C)ccc42)CCCC31 (centres unmarked),8.68% and 0.266%
22,COc1ccc2c(C)c(CC(=O)N3CCOCC3)c(=O)oc2c1,0.895%
23,Cc1cc(CO)c(C)n1-c1ccccc1,4.32%
24,Cc1cc(C)n(-c2nc(C)nc(N)n2)n1,3.76%
25,CCCCOc1ccc(C(=O)OCC(=O)c2ccc(Cl)cc2)cc1,-3.48%
26,O=C(CN1Cc2ccccc2C1=O)NCCN1CCC(Cc2ccccc2)CC1,1.86%
27,CCCC(=O)Nc1ccc(C(=O)NCc2ccc(OC)cc2)cc1,5.15%
28,O=S(=O)(NCC1CCCO1)c1cc(Cl)ccc1Br (centres unmarked),3.05%
29,Cn1c(=O)n(C)c2cc(C3Nc4ccc5ccccc5c4C4=C3C(=O)CC(C)(C)C4)ccc21 (centres unmarked),11%

# Reference: publication PMC6919601, “Identification of Plasmodium dipeptidyl aminopeptidase allosteric inhibitors by high throughput screening” (PLoS ONE, 2019)
